# Results as given in publication PMC4336329 (PLoS ONE, 2015).
# Screen size: about 310,000 compounds; about 14,000 (4.5%) showed an effect of 50% or more. The effect is printed as a negative number. This is one part of the list.
# Target: human ether-à-go-go-related gene (hERG) potassium channel (human, UniProt Q12809)
# Assay: primary screen, population patch clamp on CHO cells stably expressing hERG
# 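Further: peak tail current of the secondary pulse compared with the same well before compound.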
# human ether-à-go-go-related gene (hERG) potassium channel, sequence (Q12809 whole entry, looked up): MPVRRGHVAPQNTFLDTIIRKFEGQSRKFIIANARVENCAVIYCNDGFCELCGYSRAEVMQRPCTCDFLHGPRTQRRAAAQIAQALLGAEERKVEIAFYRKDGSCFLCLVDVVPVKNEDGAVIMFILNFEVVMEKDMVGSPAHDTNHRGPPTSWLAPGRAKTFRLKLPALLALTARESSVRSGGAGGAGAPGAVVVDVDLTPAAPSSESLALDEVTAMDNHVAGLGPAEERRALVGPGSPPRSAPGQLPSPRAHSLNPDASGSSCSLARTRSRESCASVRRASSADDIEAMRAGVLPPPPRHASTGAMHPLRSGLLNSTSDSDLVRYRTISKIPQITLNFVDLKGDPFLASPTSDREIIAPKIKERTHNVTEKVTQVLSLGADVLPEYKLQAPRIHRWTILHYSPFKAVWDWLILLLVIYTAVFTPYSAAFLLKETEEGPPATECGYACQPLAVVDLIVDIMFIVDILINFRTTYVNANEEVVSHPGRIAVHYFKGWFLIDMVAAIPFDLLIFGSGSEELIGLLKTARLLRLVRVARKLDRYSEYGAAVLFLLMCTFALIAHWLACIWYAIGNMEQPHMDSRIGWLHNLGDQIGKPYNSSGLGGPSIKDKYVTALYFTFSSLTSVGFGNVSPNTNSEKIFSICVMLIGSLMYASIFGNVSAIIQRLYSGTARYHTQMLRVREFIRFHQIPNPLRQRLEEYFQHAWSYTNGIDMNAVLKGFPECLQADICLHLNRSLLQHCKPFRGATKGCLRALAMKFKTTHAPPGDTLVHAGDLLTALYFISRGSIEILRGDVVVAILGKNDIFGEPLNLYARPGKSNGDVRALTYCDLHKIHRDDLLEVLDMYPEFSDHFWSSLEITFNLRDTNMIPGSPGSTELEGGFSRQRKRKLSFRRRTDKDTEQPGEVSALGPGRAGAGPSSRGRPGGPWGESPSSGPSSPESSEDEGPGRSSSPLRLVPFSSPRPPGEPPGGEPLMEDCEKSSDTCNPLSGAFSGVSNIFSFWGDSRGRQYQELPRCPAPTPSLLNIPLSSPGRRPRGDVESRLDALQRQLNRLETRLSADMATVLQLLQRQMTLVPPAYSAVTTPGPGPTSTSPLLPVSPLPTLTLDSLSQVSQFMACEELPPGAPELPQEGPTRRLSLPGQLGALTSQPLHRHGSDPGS
row,SMILES,"hERG current change (%, negative = inhibition) at 10uM [%]"
1,CCc1nnc2c(NCCc3ccccc3)nc3ccccc3n12,8.04
2,CCOc1ccccc1NC(=O)C1CCC(CNc2c(N3CCCCC3)c(=O)c2=O)CC1 (stereo not drawn),7.02
3,CCOC(=O)C1(Cc2cccc(OC)c2)CCN(Cc2cccc3cnccc23)CC1,-39.3
4,COC(=O)C1=C(c2ccc(OC(F)(F)F)cc2)C[C@@H]2CC[C@H]1N2C(=O)NC1CC1,-10.9
5,CC1CCN(C(=O)c2ccc(CNc3c(N4CCCC4)c(=O)c3=O)cc2)CC1,1.58
6,C/C(Cc1ccccc1)=N\NC(=O)CNC(=O)c1ccccc1,11.7
7,CC(C)C(NC(=O)OCc1ccccc1)C(=O)OCC(=O)N1CCCCC1 (stereo not drawn),-7.36
8,CCOc1ccc(S(=O)(=O)N2CCC(C(=O)NC3CCCCC3)CC2)cc1,18.3
9,CCc1c(C)c(C#N)c2nc3ccccc3n2c1N1CCN(c2cc(C)ccn2)CC1,17.4
10,COc1ccc(CC(=O)Nc2ccc(OC)nc2)cc1,7.08
11,O=C1NC(=S)NC(=O)C12C(c1ccc(F)cc1)NC(=S)NC2c1ccc(F)cc1 (stereo not drawn),-4.14
12,O=C(CC12CC3CC(CC(C3)C1)C2)NC(=S)NCc1ccccc1,0.161
13,Cc1ncc(CN2CCN(C(C)C)C(CCO)C2)s1 (stereo not drawn),19
14,O=C(C1=NN[C@@H]2C(=O)N(c3ccccc3C(F)(F)F)C(=O)[C@H]12)c1ccc2ccccc2n1,-19.7
15,COc1ccccc1NC(=O)c1cc2c(=O)n(C)c3ccccc3c2n1C,1.19
16,CC12CCC(C/C1=N\N=C1\NC(=O)/C(=C\c3ccc(Cl)cc3)S1)C2(C)C (stereo not drawn),12.2
17,CCOC(=O)NC(=O)CSc1nnnn1-c1ccc(Cl)cc1,-47.8
18,Cl.O=C(O)C1=CCNCC1,17.6
19,O=C(Nc1c2c(nn1-c1ccc(F)cc1)CS(=O)C2)c1ccco1 (stereo not drawn),-21.4
20,Cc1ccc(Cl)c(OCC(=O)Nc2cc(S(=O)(=O)N3CCOCC3)ccc2N2CCCC2)c1,-15.4
21,CCc1ccc(-c2cc3c(=O)n(CC(=O)NCCCN4CCN(CC)CC4)nc(C)n3n2)cc1,-30

row,SMILES,"hERG current change (%, negative = inhibition) at 10uM [%]"
1,Cc1cc(NC(=O)CCC(=O)N(c2ccccc2)C(C(=O)NC2CCCC2)c2ccc(F)cc2)no1 (stereo not drawn),25.9
2,Cc1cc(OC(=O)c2cccc(Cl)c2)c([N+](=O)[O-])c(=O)[nH]1,19.9
3,CC(C)N1CCN(Cc2ccc(OC3CCCC3)cc2)CC1CCO (stereo not drawn),-10.7
4,CC(C)(CC(=O)O)CC(=O)N1CCCN(c2nc3ccc(Cl)cc3s2)CC1,10.2
5,COc1ccc(-n2c(C)cc(C(=O)COC(=O)Cc3n[nH]c(=O)c4ccccc34)c2C)cc1,-7.36
6,O=C1CN(C(=O)COc2c(F)c(F)cc(F)c2F)c2ccccc2N1,0.479
7,CC(C)OC(=O)CSc1nnc(-c2cccnc2)n1N,4.9
8,CCNC(=S)N/N=C/c1sccc1C,14.7
9,COCCN(CCOC)C(=O)CSc1ccc(S(=O)(=O)N2CCN(C)CC2)cn1,0.802
10,COc1cc(NC(=S)N2CCOCC2)c(OC)cc1Cl,18.9
11,O=C(NCC(=O)N(c1ccccc1)C(C(=O)NC1CCCC1)c1ccncc1)c1ccco1 (stereo not drawn),-6.21
12,CCOC(=O)c1nn(-c2ccc(OCC)cc2)c2nc(-c3cccc(OC)c3)c(C#N)c(=O)n12,2.83
13,CN(C(=O)CCc1nnc(-c2ccc(-c3ccccc3)cc2)o1)C1CCOCC1,-25.8
14,CCN(CC)CCNC(=O)c1ccc(NC(=O)Cc2cccc3ccccc23)cc1,-24
15,CCOc1ccc(NC(=O)CN(C)S(=O)(=O)c2cnc[nH]2)cc1,46
16,O=C(NCCc1c[nH]c2ccccc12)/C(=C\c1cccnc1)NC(=O)c1cccs1,-17
17,CN1CCC(N(C)c2nc(-c3ccccc3)nc3ccccc23)CC1,-70.4
18,CCN(CC(=O)Nc1ccccc1C(F)(F)F)C(=O)c1cc(-c2ccccc2)nn1-c1ccccc1,3.79
19,CCOC(=O)/C(C#N)=C\C1=C(N2CCCC2)CC(C)(C)OC1,-2.21
20,CS(=O)(=O)N1N=C(c2ccco2)CC1c1ccc(Br)cc1 (stereo not drawn),7.34
21,Cc1ccc(OCc2ccc(C(=O)Nc3nc4ccccc4n3Cc3ccccc3)o2)c([N+](=O)[O-])c1,11.2
